Test results from PMC4336329 (PLoS ONE, 2015).
Out of some 310,000 compounds screened, about 2,200 (0.71%) showed an effect of 50% or more. Effects have a minus sign here. The list shows a part of the results.

target: human ether-à-go-go-related gene (hERG) potassium channel (human, UniProt Q12809); assay: primary screen, population patch clamp on CHO cells stably expressing hERG
Sequence (Q12809 whole entry, looked up): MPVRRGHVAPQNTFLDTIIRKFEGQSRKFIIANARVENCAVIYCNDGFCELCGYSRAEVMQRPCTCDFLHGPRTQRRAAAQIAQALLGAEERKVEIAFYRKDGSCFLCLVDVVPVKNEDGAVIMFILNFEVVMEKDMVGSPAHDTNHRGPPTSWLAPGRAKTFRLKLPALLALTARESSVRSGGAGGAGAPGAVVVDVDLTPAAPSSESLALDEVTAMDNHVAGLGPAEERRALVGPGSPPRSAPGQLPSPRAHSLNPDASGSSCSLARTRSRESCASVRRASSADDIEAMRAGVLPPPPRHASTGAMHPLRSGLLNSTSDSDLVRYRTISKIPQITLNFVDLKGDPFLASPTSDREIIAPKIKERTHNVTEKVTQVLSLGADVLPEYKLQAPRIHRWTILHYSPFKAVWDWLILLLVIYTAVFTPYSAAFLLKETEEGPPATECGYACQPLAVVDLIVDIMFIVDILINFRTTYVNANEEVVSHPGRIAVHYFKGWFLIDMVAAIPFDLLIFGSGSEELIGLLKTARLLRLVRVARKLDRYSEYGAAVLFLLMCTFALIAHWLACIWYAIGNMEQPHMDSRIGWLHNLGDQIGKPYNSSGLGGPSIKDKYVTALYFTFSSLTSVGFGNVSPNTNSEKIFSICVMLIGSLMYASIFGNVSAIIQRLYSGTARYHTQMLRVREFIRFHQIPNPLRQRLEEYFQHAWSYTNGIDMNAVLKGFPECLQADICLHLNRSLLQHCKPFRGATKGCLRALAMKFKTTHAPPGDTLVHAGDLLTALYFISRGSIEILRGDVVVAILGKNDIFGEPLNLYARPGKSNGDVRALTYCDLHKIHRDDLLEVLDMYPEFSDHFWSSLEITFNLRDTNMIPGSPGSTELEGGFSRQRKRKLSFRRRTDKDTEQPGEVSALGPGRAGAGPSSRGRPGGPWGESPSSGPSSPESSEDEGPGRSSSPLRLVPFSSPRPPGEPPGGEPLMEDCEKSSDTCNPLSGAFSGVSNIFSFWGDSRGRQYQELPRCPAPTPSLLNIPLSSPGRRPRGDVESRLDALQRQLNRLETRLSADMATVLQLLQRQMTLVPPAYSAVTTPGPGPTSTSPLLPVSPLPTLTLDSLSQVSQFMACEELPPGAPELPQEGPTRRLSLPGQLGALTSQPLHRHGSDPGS

Compound	hERG current change (%, negative = inhibition) at 1uM [%]
CCc1nc(C)cn1S(=O)(=O)c1cc(Br)c(C)cc1OC	4.97
CC(=O)Oc1ccc2ccccc2c1C(NC(=O)C(C)C)c1cccc([N+](=O)[O-])c1 (stereo not shown)	6.94
COc1ccc(CN2CCNC(=O)C2CC(=O)NCCSc2nccn2C)cc1OC (stereo not shown)	20.3
Cc1cc(C)n(C(=O)CCCn2nc(C)c([N+](=O)[O-])c2C)n1	6.87
CCC(=O)Nc1cc(ON=C(C)C)cc([N+](=O)[O-])c1	7.72
CC(C)CCN1C(=O)CCC1(C)C(=O)NC1CCCCCCC1 (stereo not shown)	13.5
CCn1c2ccccc2c2cc(NC(=O)CSc3nnnn3-c3ccccc3)ccc21	9.35
CCN(CC(=O)Nc1ccc(NC(C)=O)cc1)C(=O)COc1ccc2ccccc2c1	-0.679
O=C(O)CSc1ccnc2cc(Cl)ccc12	14.8
COC(=O)C1=C(C)N(CC(C)C)C(=O)C1	2.85
CCOc1ccc(C(=O)NCC(c2ccco2)N2CCOCC2)cc1 (stereo not shown)	9.87
Cc1cc(-c2cc(C(=O)NC3CCCC3)on2)nc(NC2CCCC2)n1	6.28
COc1ccc(-c2cc(=O)oc3cc(OC(C)C(=O)NCCCn4ccnc4)ccc23)cc1 (stereo not shown)	-7.88
O=C1CN(C(=O)CSc2nc(-c3ccc(Cl)cc3)cs2)c2ccccc2N1	8.81
CN1C(=O)c2ccccc2N(C)C1c1cccs1 (stereo not shown)	9.75
Cc1ccc(S(=O)(=O)N(C)C)cc1NC(=O)c1cncc(Br)c1	6.93
CC(=O)Nc1ccc(NC(=O)CSc2nnc(-c3cccnc3)o2)cc1	9.05
COc1ccc(-n2nc([N+](=O)[O-])c(=NCCc3ccccc3)n2O)cc1	2.77
CC(NC(=O)CSc1nc2ccccc2n1CCC#N)c1ccc(F)cc1 (stereo not shown)	0.936
CCN(CC)CCN1C(=O)C2C(C(=O)Nc3cc(C)cc(C)c3)C3C=CC2(O3)C1C(=O)NC1CCCCC1 (stereo not shown)	14.1
COc1ccc2c(c1)c(=O)c(Br)c(C)n2Cc1ccccc1	19.2
COc1ccc(-n2c(SCC(N)=O)nnc2-c2ccco2)cc1	15.6
Cc1csc(SCC(=O)N2CCCC2)n1	7.19
CCCCC[C@H](O)/C=C/[C@@H]1[C@@H](C/C=C\CCCC(=O)O)[C@H]2CO[C@@H]1C2	7.16
CC(C)(C)OC(=O)N1CCC(c2c(C(=O)O)cnn2-c2ccccc2Cl)CC1	-1.08
